The DeepSol protein solubility set

Assay: soluble on expression in E. coli; label from the status in PepcDB or PDB records

Sequence	soluble on expression in E. coli
MGGSHHHHHHGMASQEIIASVDHIKFDLEIAVEQQLGAQPLPFPGMDKSGAAVCEFFLKAACGKGGMCPFRHISGEKTVVCKHWLRGLCKKGDQCEFLHEYDMTKMPECYFYSKFGECSNKECPFLHIDPESKIKDCPWYDRGFCKHGPLCRHRHTRRVICVNYLVGFCPEGPSCKFMHPRFELPMGTTEQPPLPQQTQPPAKQSNNPPLQRSSSLIQLTSQNSSPNQQRTPQVIGVMQSQNSSAGNRGPRPLEQVTCYKCGEKGHYANRCTKGHLAFLSGQ	not soluble
SNASTTKLHPLINQKFQSPLSKEIFFESYFSTENLPFLADHIVYEQVVVPGASHISLLLAAASLTFAATECQIEDILFPQALAIPEQGVRTVQVVLTPQNNSFSFQVISFDDSLESQINQVSNNGSHISDWAVHATGKLSVANAEQSLIPLEEIQARCSQKIDSAEIYQHLWDRQIHLGQSFRWIEQVWLGEGEVLCQMKVPKTILNTTKYQLHPTLVDSCFQSIIALVLDQSGNKNETFVPFSIDKFTFYNSSDNDLLWCYTCGSKDKQSGEKFKADIQLFDQHGQLVAQVIGFEGRKANPKILLMT	soluble
